Assay results: the supplement of paper PMC9151546
Many values rest on one well or one pass, so single values are uncertain.

Tests used:
CHO-K1 [1] = assay: hypodiploid nuclei frequency (% of nucleated events); higher = more hypodiploid events (aneugenic)
Protocol: (§1)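 Flow-cytometric in vitro micronucleus assay (Litron MicroFlow) in CHO-K1 cells in 96-well plates, 19 concentrations (4.5-200 µM, n=1 per concentration). Without S9, cells were exposed for 24 h and sampled at 48 h. With Aroclor 1254-induced rat liver S9, cells were exposed for 3-4 h and sampled at 27-28 h. Read-outs are %MN and %hypodiploid nuclei relative to nucleated events, and relative survival as the nuclei-to-bead ratio versus the 1% DMSO vehicle control (x100).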

CHO-K1 [2] = assay: micronucleus frequency (% of nucleated events); higher = more micronuclei (genotoxic)
CHO-K1 [3] = assay: relative survival (nuclei to bead ratio vs DMSO control) (% of vehicle control); higher = more surviving cells
Protocol: as §1
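For hypodiploid nuclei frequency (% of nucleated events) in this document: hypodiploid nuclei gated on a flow cytometer with 488 nm excitation after SYTOX Green staining, cultures at 37 °C, positive controls vinblastine without S9 and cyclophosphamide with S9.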
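For micronucleus frequency (% of nucleated events) in this document: cells lysed with nuclei stained by SYTOX Green, then micronucleus-gated events counted against nucleated events by flow cytometry with 488 nm excitation.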
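For relative survival (nuclei to bead ratio vs DMSO control) in this document: Lysed-cell nuclei stained with SYTOX Green and counted against counting beads by flow cytometry at 488 nm excitation, with vinblastine (no S9) and cyclophosphamide (plus S9) as positive controls.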

CN(C)c1ccc(Cc2ccc(N(C)C)cc2)cc1 [4,4'-Methylenebis(N,N-dimethylaniline)]
Details	hypodiploid nuclei frequency, CHO-K1 [1] [%]	micronucleus frequency, CHO-K1 [2] [%]	relative survival, CHO-K1 [3]
concentration: 4.5 (µM), S9 metabolic activation: with S9, exposure time: 3-4 hours	0.2	0.66	115
concentration: 4.5 (µM), S9 metabolic activation: without S9, exposure time: 24 hours	0.58	1.12	112
concentration: 5.63 (µM), S9 metabolic activation: with S9, exposure time: 3-4 hours	0.08	1.08	83.4
concentration: 5.63 (µM), S9 metabolic activation: without S9, exposure time: 24 hours	0.34	1.1	107
concentration: 7.04 (µM), S9 metabolic activation: with S9, exposure time: 3-4 hours	0.28	0.86	85.4
concentration: 7.04 (µM), S9 metabolic activation: without S9, exposure time: 24 hours	0.5	0.94	113
concentration: 8.8 (µM), S9 metabolic activation: with S9, exposure time: 3-4 hours	0.18	0.76	88.4
concentration: 8.8 (µM), S9 metabolic activation: without S9, exposure time: 24 hours	0.52	1.16	98
concentration: 11 (µM), S9 metabolic activation: with S9, exposure time: 3-4 hours	0.27	0.79	80.7
concentration: 11 (µM), S9 metabolic activation: without S9, exposure time: 24 hours	0.52	1.24	117
concentration: 13.7 (µM), S9 metabolic activation: with S9, exposure time: 3-4 hours	0.34	0.9	78.8
concentration: 13.7 (µM), S9 metabolic activation: without S9, exposure time: 24 hours	0.5	1.16	122
concentration: 17.2 (µM), S9 metabolic activation: with S9, exposure time: 3-4 hours	0.28	1.18	83.2
concentration: 17.2 (µM), S9 metabolic activation: without S9, exposure time: 24 hours	0.7	1.26	116
concentration: 21.5 (µM), S9 metabolic activation: with S9, exposure time: 3-4 hours	0.1	0.88	87.3
concentration: 21.5 (µM), S9 metabolic activation: without S9, exposure time: 24 hours	0.64	1.08	158
concentration: 26.8 (µM), S9 metabolic activation: with S9, exposure time: 3-4 hours	0.22	0.84	60.3
concentration: 26.8 (µM), S9 metabolic activation: without S9, exposure time: 24 hours	0.8	1.34	86.2
concentration: 33.6 (µM), S9 metabolic activation: with S9, exposure time: 3-4 hours	0.2	0.74	89
concentration: 33.6 (µM), S9 metabolic activation: without S9, exposure time: 24 hours	0.5	1.3	98.3
concentration: 41.9 (µM), S9 metabolic activation: with S9, exposure time: 3-4 hours	0.14	1.24	85.2
concentration: 41.9 (µM), S9 metabolic activation: without S9, exposure time: 24 hours	0.68	0.92	88
concentration: 52.4 (µM), S9 metabolic activation: with S9, exposure time: 3-4 hours	0.18	1.23	71.9
concentration: 52.4 (µM), S9 metabolic activation: without S9, exposure time: 24 hours	0.6	1.34	85.1
concentration: 65.5 (µM), S9 metabolic activation: with S9, exposure time: 3-4 hours	0.22	1.22	59.4
concentration: 65.5 (µM), S9 metabolic activation: without S9, exposure time: 24 hours	1.08	1.4	76.6
concentration: 81.9 (µM), S9 metabolic activation: with S9, exposure time: 3-4 hours	0.35	1.47	56.2
concentration: 81.9 (µM), S9 metabolic activation: without S9, exposure time: 24 hours	1.04	2.08	72.5
concentration: 102 (µM), S9 metabolic activation: with S9, exposure time: 3-4 hours	0.52	1.39	54.4
concentration: 102 (µM), S9 metabolic activation: without S9, exposure time: 24 hours	1.28	1.34	61.5
concentration: 128 (µM), S9 metabolic activation: with S9, exposure time: 3-4 hours	1.05	2.77	56.7
concentration: 128 (µM), S9 metabolic activation: without S9, exposure time: 24 hours	1.54	1.38	49.2
concentration: 160 (µM), S9 metabolic activation: with S9, exposure time: 3-4 hours	1.41	2.66	60.6
concentration: 160 (µM), S9 metabolic activation: without S9, exposure time: 24 hours	1.14	1.44	49.8
concentration: 200 (µM), S9 metabolic activation: with S9, exposure time: 3-4 hours	1.85	2.37	68.6
concentration: 200 (µM), S9 metabolic activation: without S9, exposure time: 24 hours	–	–	30.7

Nc1ccc(Cl)cc1 [4-Chloroaniline]
Details	hypodiploid nuclei frequency, CHO-K1 [1] [%]	micronucleus frequency, CHO-K1 [2] [%]	relative survival, CHO-K1 [3]
concentration: 4.48 (µM), S9 metabolic activation: with S9, exposure time: 3-4 hours	0.2	0.8	129
concentration: 4.48 (µM), S9 metabolic activation: without S9, exposure time: 24 hours	0.52	1.26	111
concentration: 5.6 (µM), S9 metabolic activation: with S9, exposure time: 3-4 hours	0.32	1.38	106
concentration: 5.6 (µM), S9 metabolic activation: without S9, exposure time: 24 hours	0.64	1.5	103
concentration: 7 (µM), S9 metabolic activation: with S9, exposure time: 3-4 hours	0.16	1.36	130
concentration: 7 (µM), S9 metabolic activation: without S9, exposure time: 24 hours	0.32	1.9	91.9
concentration: 8.75 (µM), S9 metabolic activation: with S9, exposure time: 3-4 hours	0.22	1.02	106
concentration: 8.75 (µM), S9 metabolic activation: without S9, exposure time: 24 hours	0.46	1.2	106
concentration: 10.9 (µM), S9 metabolic activation: with S9, exposure time: 3-4 hours	0.22	1.68	112
concentration: 10.9 (µM), S9 metabolic activation: without S9, exposure time: 24 hours	0.76	2.4	108
concentration: 13.7 (µM), S9 metabolic activation: with S9, exposure time: 3-4 hours	0.14	0.94	103
concentration: 13.7 (µM), S9 metabolic activation: without S9, exposure time: 24 hours	0.56	1.7	96.2
concentration: 17.1 (µM), S9 metabolic activation: with S9, exposure time: 3-4 hours	0.2	1.52	119
concentration: 17.1 (µM), S9 metabolic activation: without S9, exposure time: 24 hours	0.56	1.72	102
concentration: 21.4 (µM), S9 metabolic activation: with S9, exposure time: 3-4 hours	0.14	1.02	96.3
concentration: 21.4 (µM), S9 metabolic activation: without S9, exposure time: 24 hours	0.64	1.04	104
concentration: 26.7 (µM), S9 metabolic activation: with S9, exposure time: 3-4 hours	0.18	0.72	116
concentration: 26.7 (µM), S9 metabolic activation: without S9, exposure time: 24 hours	0.76	1.78	97.9
concentration: 33.4 (µM), S9 metabolic activation: with S9, exposure time: 3-4 hours	0.28	0.94	102
concentration: 33.4 (µM), S9 metabolic activation: without S9, exposure time: 24 hours	0.88	1.32	93.7
concentration: 41.7 (µM), S9 metabolic activation: with S9, exposure time: 3-4 hours	0.32	1.14	113
concentration: 41.7 (µM), S9 metabolic activation: without S9, exposure time: 24 hours	0.78	1.68	122
concentration: 52.2 (µM), S9 metabolic activation: with S9, exposure time: 3-4 hours	0.34	1.18	108
concentration: 52.2 (µM), S9 metabolic activation: without S9, exposure time: 24 hours	0.74	1.72	96.4
concentration: 65.2 (µM), S9 metabolic activation: with S9, exposure time: 3-4 hours	0.3	1	120
concentration: 65.2 (µM), S9 metabolic activation: without S9, exposure time: 24 hours	0.6	1.46	110
concentration: 81.5 (µM), S9 metabolic activation: with S9, exposure time: 3-4 hours	0.2	0.88	125
concentration: 81.5 (µM), S9 metabolic activation: without S9, exposure time: 24 hours	1.06	2.04	117
concentration: 102 (µM), S9 metabolic activation: with S9, exposure time: 3-4 hours	0.24	1.08	123
concentration: 102 (µM), S9 metabolic activation: without S9, exposure time: 24 hours	1.04	2.28	114
concentration: 127 (µM), S9 metabolic activation: with S9, exposure time: 3-4 hours	0.28	1.2	116
concentration: 127 (µM), S9 metabolic activation: without S9, exposure time: 24 hours	0.86	1.86	88.4
concentration: 159 (µM), S9 metabolic activation: with S9, exposure time: 3-4 hours	0.26	1.32	122
concentration: 159 (µM), S9 metabolic activation: without S9, exposure time: 24 hours	1.28	2.66	94.8
concentration: 199 (µM), S9 metabolic activation: with S9, exposure time: 3-4 hours	0.18	1.14	120
concentration: 199 (µM), S9 metabolic activation: without S9, exposure time: 24 hours	1.12	2.26	92.4
